Out of some 310,000 compounds screened, about 2,200 (0.71%) showed an effect of 50% or more. Effects have a minus sign here. This is one part of the list.
Target: human ether-à-go-go-related gene (hERG) potassium channel (human, UniProt Q12809)
Assay: primary screen, population patch clamp on CHO cells stably expressing hERG

human ether-à-go-go-related gene (hERG) potassium channel, sequence (Q12809 whole entry, looked up): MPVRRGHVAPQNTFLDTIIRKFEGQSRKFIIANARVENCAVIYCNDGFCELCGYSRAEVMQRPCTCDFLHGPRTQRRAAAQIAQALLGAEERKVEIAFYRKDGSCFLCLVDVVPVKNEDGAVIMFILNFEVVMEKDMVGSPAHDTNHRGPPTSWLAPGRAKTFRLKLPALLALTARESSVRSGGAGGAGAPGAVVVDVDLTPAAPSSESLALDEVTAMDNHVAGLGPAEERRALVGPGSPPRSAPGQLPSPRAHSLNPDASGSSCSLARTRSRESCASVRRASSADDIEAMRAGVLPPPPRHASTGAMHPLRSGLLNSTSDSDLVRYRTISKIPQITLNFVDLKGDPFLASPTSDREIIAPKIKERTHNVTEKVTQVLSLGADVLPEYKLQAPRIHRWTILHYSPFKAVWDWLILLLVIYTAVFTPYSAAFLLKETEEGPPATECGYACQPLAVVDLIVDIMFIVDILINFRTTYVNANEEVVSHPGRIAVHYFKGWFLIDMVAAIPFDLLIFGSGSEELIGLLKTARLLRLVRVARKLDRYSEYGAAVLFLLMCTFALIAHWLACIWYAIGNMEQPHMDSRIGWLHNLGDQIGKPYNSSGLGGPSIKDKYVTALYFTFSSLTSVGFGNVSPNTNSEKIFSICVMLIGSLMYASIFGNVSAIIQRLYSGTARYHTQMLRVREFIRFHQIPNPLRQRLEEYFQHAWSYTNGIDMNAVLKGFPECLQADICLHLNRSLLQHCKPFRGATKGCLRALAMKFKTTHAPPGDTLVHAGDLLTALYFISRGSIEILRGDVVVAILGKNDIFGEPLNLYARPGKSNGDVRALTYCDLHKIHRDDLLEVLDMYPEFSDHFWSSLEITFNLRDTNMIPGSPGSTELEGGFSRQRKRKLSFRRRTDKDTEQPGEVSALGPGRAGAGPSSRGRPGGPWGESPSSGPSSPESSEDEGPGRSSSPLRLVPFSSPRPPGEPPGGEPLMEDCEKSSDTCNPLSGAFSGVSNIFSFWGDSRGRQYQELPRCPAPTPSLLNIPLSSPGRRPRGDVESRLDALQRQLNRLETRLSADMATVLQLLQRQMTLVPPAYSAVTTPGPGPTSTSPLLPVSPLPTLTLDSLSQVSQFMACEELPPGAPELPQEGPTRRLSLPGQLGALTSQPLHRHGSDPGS

| SMILES | hERG current change (%, negative = inhibition) at 1uM |
| --- | --- |
| Cc1ccc(OCCNC(=O)CCNS(=O)(=O)c2ccc(C)cc2)cc1 | 6.65% |
| Cn1c2c(c(=O)n(C)c1=O)C(c1cc3c(cc1Br)OCO3)CC(=O)N2 (stereo not shown) | 7.16% |
| Cc1ccc(OCC(=O)Nc2ccc(N3CCN(C(=O)c4ccc(C)cc4)CC3)cc2)cc1 | 8.7% |
| Cc1ccc(C)c(N(CC(=O)NCCC2=CCCCC2)S(C)(=O)=O)c1 | -2.02% |
| CC(=O)C1=C(O)C(=O)N(c2ccc(O)cc2)C1c1ccccc1Cl (stereo not shown) | 10.6% |
| COc1nc(Oc2ccc(=O)n(C)n2)nc(N(C)C)n1 | 4.3% |
| O=C(NC(=S)NNC(=O)c1ccccc1O)c1ccc(F)cc1 | 13.9% |
| COc1cccc(-c2cc(C(=O)N3CCN(C(=O)c4ccco4)CC3)on2)c1 | 5.77% |
| Cc1ccnc(NC(=O)CCC2COc3ccccc3O2)c1 (stereo not shown) | 1.13% |
| CN(C)c1cccc2cccc(N(C)C)c12 | 11.2% |
| CC(=Nc1ccccc1C(F)(F)F)c1ccncc1 | 19.8% |
| CCCc1nc2ccc(NC(=O)c3ccco3)cc2c(=O)n1Cc1ccccc1Cl | 7.79% |
| Cc1ccc(OCC(=O)N/N=C/c2cccnc2)cc1 | -4.57% |
| CCN(CC(=O)Nc1ccc2c(c1)OCCO2)C(=O)c1ccc(Cl)cc1Cl | 8.99% |
| Cc1nn(C(=O)N(C)C)c(C)c1CN1C(=O)c2ccccc2C1=O | 16.4% |
| CC1CCCN(C(=O)CSc2nc3ncccc3[nH]2)C1 (stereo not shown) | 4.71% |
| COc1ccc(N2CCN(C(CNC(C)=O)c3ccc4c(c3)OCO4)CC2)cc1 (stereo not shown) | 15.9% |
| CCn1nc(NC(=O)C2CCCO2)c2cc3cc(C)ccc3nc21 (stereo not shown) | 7.19% |
| CCCCNC(=O)C1C2C=CC3(CN(Cc4ccccc4Cl)C(=O)C13)O2 (stereo not shown) | 14% |
| COc1ccc([N+](=O)[O-])cc1NC(=O)COC(=O)c1ccccc1C(=O)c1ccccc1 | 0.26% |
| CN(C(=O)c1ccc2c(=O)n3c(nc2c1)CCCCC3)c1cccc(Cl)c1 | 0.0681% |
| Cc1ccc(-n2c(SCC(=O)N3CC(=O)Nc4ccccc43)nc3ccccc3c2=O)cc1 | 3.28% |
| COC(C(=O)Nc1ccnn1C1CCN(Cc2ccc(C)o2)CC1)c1ccccc1 (stereo not shown) | 8.71% |
| Cc1c(C(=O)O)oc2c1C(O)CCC2 (stereo not shown) | -1.66% |
| COc1ccc(CCC(=O)N(c2nnc(-c3cccnc3)s2)C(C)C)cc1.Cl | -3.31% |
| COc1ccc(CCNC(=O)c2ccc(N(C)S(=O)(=O)c3ccc(C)cc3)cc2)cc1 | 0.332% |
| Cc1ccc(CNC(=O)C2CCCN(S(=O)(=O)c3ccc(F)cc3)C2)cc1 (stereo not shown) | -8.97% |
| Cc1ncc([N+](=O)[O-])n1Cc1ccccc1F | 12% |

| SMILES | hERG current change (%, negative = inhibition) at 1uM |
| --- | --- |
| O=C(Nc1nccs1)c1ccc2ccccc2c1 | 21.5% |
| CN1CCN(S(=O)(=O)c2ccc(NC(=O)c3ccc(Br)o3)cc2)CC1 | -4.72% |
| O=C1C=C(c2ccc(F)c(Cl)c2)C[C@@H](c2ccc(F)cc2)C1 | 1.79% |
| COc1ccc2c(c1)c(CC(=O)Nc1ccc(C(C)=O)cc1)c(C)n2C(=O)c1ccc(Cl)cc1 | 3.95% |
| Cc1cc(OCC(=O)Nc2ccc3oc(-c4ccncc4)nc3c2)ccc1Cl | 9.6% |
| CCOc1ccc(-c2ccc(SC)nn2)cc1 | 12.8% |
| COc1ccc(/C=C(\NC(=O)c2cccs2)C(=O)Nc2ccc(C)cc2)cc1OC | 5.9% |
| Cc1c(Cl)cccc1NC(=O)COC(=O)c1c2c(nc3ccccc13)CCN(Cc1ccccc1)C2 | 9.3% |
| Cc1cccc(NC(=S)NC2CCN(Cc3ccccc3)CC2)c1C | 14.4% |
| CCn1c(=N)n(CC(O)c2cccs2)c2ccccc21.Cl (stereo not shown) | -7.18% |
| Cc1nn(Cc2ccc(Cl)cc2)c(C)c1NC(=O)c1c(-c2ccccc2)noc1C | -15.7% |
| CCCCOc1ccc(C(=O)Nc2ccncc2)cc1 | 21.2% |
| CCOC(=O)C[C@H]1c2ccccc2S(=O)(=O)N1Cc1cc(OC)c(OC)c(OC)c1 | 10.8% |
| Cn1c(=O)oc2cc(S(=O)(=O)Nc3ccc(Cl)cc3F)ccc21 | 1.45% |
| CC(C)(C)c1cc(CP(=O)(c2ccccc2)c2ccccc2)cc(C(C)(C)C)c1O | 18.7% |
| Cc1c(Nc2cc(N3CCCC(C)C3)c3nonc3c2[N+](=O)[O-])c(=O)n(-c2ccccc2)n1C (stereo not shown) | -4.1% |
| CCN(c1cccc(C)c1)S(=O)(=O)c1cnc[nH]1 | 8.01% |
| O=C(COc1ncnc2ccccc12)N1CCN(S(=O)(=O)c2ccc(Cl)cc2)CC1 | 0.332% |
| O=C(CNC(=O)c1ccc(Cl)cc1Cl)NCCCn1ccnc1 | 12.5% |
| COc1cccc(-c2nc(CS(=O)CC(=O)NC3CCCCC3)c(C)o2)c1 (stereo not shown) | 0.932% |
| O=C1N=c2ccccc2=C1c1sc(=S)n(-c2ccc(O)cc2)c1O | 18.5% |
| CCS(=O)(=O)NCCCCc1ccccc1 | -1.33% |
| COc1ccccc1CN1CC(C(=O)NCCc2cn[nH]c2)CCC1=O (stereo not shown) | 12.6% |
| CC(C)Cn1cc(C(=O)NCCCOC(C)C)c2c3ccccc3n(C)c2c1=O | 9.78% |
| O=C(N/N=C/c1c(O)n(CCc2ccc(F)cc2)c(=O)[nH]c1=O)c1ccccc1 | 9.78% |
| CC(C)[C@@H]1CC[C@@H](C)c2c(-c3ccccc3)n[nH]c21 | 22.6% |
| COc1cc(/C=C2\C(=N)N3N=C(S(C)(=O)=O)SC3=NC2=O)cc(OC)c1OCCOc1ccc(C)cc1 | 11.2% |

From publication PMC4336329 (PLoS ONE, 2015)
